# Test results as given in ChEMBL document CHEMBL3525906, “A comprehensive assessment of repaglinide metabolic pathways: impact of choice of in vitro system and relative enzyme contribution to in vitro clearance” (Drug Metab Dispos, 2012).
# B1: Cytochrome P450 3A4 (Homo sapiens) (protein)
# chain: MALIPDLAMETWLLLAVSLVLLYLYGTHSHGLFKKLGIPGPTPLPFLGNILSYHKGFCMFDMECHKKYGKVWGFYDGQQPVLAITDPDMIKTVLVKECYSVFTNRRPFGPVGFMKSAISIAEDEEWKRLRSLLSPTFTSGKLKEMVPIIAQYGDVLVRNLRREAETGKPVTLKDVFGAYSMDVITSTSFGVNIDSLNNPQDPFVENTKKLLRFDFLDPFFLSITVFPFLIPILEVLNICVFPREVTNFLRKSVKRMKESRLEDTQKHRVDFLQLMIDSQNSKETESHKALSDLELVAQSIIFIFAGYETTSSVLSFIMYELATHPDVQQKLQEEIDAVLPNKAPPTYDTVLQMEYLDMVVNETLRLFPIAMRLERVCKKDVEINGMFIPKGVVVMIPSYALHRDPKYWTEPEKFLPERFSKKNKDNIDPYIYTPFGSGPRNCIGMRFALMNMKLALIRVLQNFSFKPCKETQIPLKLSLGGLLQPEKPVVLKVESRDGTVSGA
# Key:
# Assay type in all cases: ADME
# [1] = substrate: CCOc1cc(CC(=O)N[C@@H](CC(C)C)c2ccccc2N2CCCCC2)ccc1C(=O)O; assay: Activity of human recombinant CYP3A4 expressed in insect cells assessed as enzyme-mediated 3'-hydroxy repaglinide formation by LC-MS/MS method
# [2] = substrate: CCOc1cc(CC(=O)N[C@@H](CC(C)C)c2ccccc2N2CCCCC2)ccc1C(=O)O; assay: Activity of human recombinant CYP3A4 expressed in insect cells assessed as enzyme-mediated 2-despiperidyl-2-amino repaglinide formation by LC-MS/MS method
# [3] = substrate: CCOc1cc(CC(=O)N[C@@H](CC(C)C)c2ccccc2N2CCCCC2)ccc1C(=O)O; assay: Activity of human recombinant CYP3A4 expressed in insect cells assessed as enzyme-mediated 3'-hydroxy repaglinide formation per picomole of protein at 0.5 to 150 uM by LC-MS/MS method
# [4] = substrate: CCOc1cc(CC(=O)N[C@@H](CC(C)C)c2ccccc2N2CCCCC2)ccc1C(=O)O; assay: Activity of human recombinant CYP3A4 expressed in insect cells assessed as enzyme-mediated 2-despiperidyl-2-amino repaglinide formation per picomole of protein at 0.5 to 150 uM by LC-MS/MS method
protein,measurement,setting,value
B1,Km,[1],47 µM
same,Km,[2],8.7 µM
same,kcat,[3],0.0015 s⁻¹
same,kcat,[4],0.0167 s⁻¹
